Measured values reported in the supplement of paper PMC11417369.
This is one part of the list.

Test system: PfAP2-HC AP2 domain (GST-tagged)
Test: gcPBM binding intensity (ln(normalized median fluorescence intensity)); higher = stronger DNA binding
Outline: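 GST-tagged P. falciparum DNA-binding domains produced in E. coli were incubated for 1 h on an Agilent 4 × 180k array of primer-extended double-stranded 36-bp intergenic genomic probes with negative controls. Binding intensity is the highest Masliner-normalised natural-log median intensity across replicate spots of either probe orientation, with bound protein detected by Alexa488 anti-GST antibody at 488 nm.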

First: GTATTTATATGATTAACACACATATGGGTATTAATA [CACACA_site4853]
Second: ATAATTTTTTAAGTGTGTACTAAAATGTGTATTTTA [XGTACX_site6227]
The “gcPBM binding intensity (ln)” value of the first is lower: 9.7 for the first, 9.71 for the second.

Compared with “TATACCTGAATTAAAAGTACATGTATATATTTTCCC [XGTACX_site3594]”, “ATAAATGACAAATTAACACACATATATTATAGATAT [CACACA_site7770]” is higher in “gcPBM binding intensity (ln)” value: 9.44 for the first, 9.86 for the second.

Going from “ATCTATATTTAATTTACACACAAAAAAAATTGTTGG [CACACA_site6582]” to “AAAATGTGATATGTAAATATATATGTATGTATATAT [CACACA_negctrl_site1748]”, the “gcPBM binding intensity (ln)” value rises from 9.75 to 9.86.

First: TAATGCATTTTCGCATGTACATATTTCTCTTTATAT [XGTACX_site8915]
Second: TATTATAGAAATTTAATGTTGGACAAAAAAATGAAA [CACACA_negctrl_site1351]
The “gcPBM binding intensity (ln)” value of the first is higher: 9.69 for the first, 9.51 for the second.

Compared with “TCTTAATATCGTTTCTCACACATATACAAACATAAA [CACACA_site5700]”, “AATATATGAATTATATGTACATATAGATAAGTCACA [XGTACX_site7637]” is higher in “gcPBM binding intensity (ln)” value: 9.61 for the first, 9.86 for the second.

Compared with “AGAGAGAAAGCTATAACATGCAACAATTTTTAGAAC [TGCATGCA_site596]”, “AAATTATTTATTTTATGTACATATTATTAAAGTTAA [XGTACX_site552]” is lower in “gcPBM binding intensity (ln)” value: 9.72 for the first, 9.48 for the second.

Going from “TTTCCCTTGTTGTAAACATGCACAATATTTAGGTAT [TGCATGCA_site49]” to “AAAAAAAAGAAAAACACACACATATATATATAGAAT [CACACA_site1006]”, the “gcPBM binding intensity (ln)” value rises from 9.75 to 11.3.

Compared with “TTATGTATTTATATAAATATAAATATATATATATAT [CACACA_negctrl_site774]”, “TATATTTATAGGTATACACACATATGTATGTTATGT [CACACA_site7824]” is higher in “gcPBM binding intensity (ln)” value: 9.39 for the first, 10.2 for the second.

Compared with “ACAAAAATAAACTATAGTACACACTTATTATTATGA [XGTACX_site5680]”, “TCATTTTATTTTTTCACACACACATCTATATTTATA [CACACA_site7547]” is higher in “gcPBM binding intensity (ln)” value: 9.82 for the first, 10.2 for the second.

First: TAAGTAACTTTTAAAAGTACCCACACATATATATAT [XGTACX_site1231]
Second: TTTCTTTTTTTTTTTTTTTTTTTTTTTTTTTTTTTT [TGCATGCA_negctrl_site91]
The “gcPBM binding intensity (ln)” value of the first is higher: 9.77 for the first, 9.13 for the second.

Going from “AAAAAAAAAAATACTCGTACATAAACCTATACATTT [XGTACX_site6494]” to “CAATTAGCATTTTATTGTACATTTATAATCTATGAT [XGTACX_site1445]”, the “gcPBM binding intensity (ln)” value falls from 9.67 to 9.61.

First: AGTATACAGATATATACACACATATATATATATATA [CACACA_site4323]
Second: ATAATATATTTTTGTAGTACACTTCTGGTAATATCG [XGTACX_site2402]
The “gcPBM binding intensity (ln)” value of the first is higher: 9.96 for the first, 9.6 for the second.

Going from “CTTAGAATATATGAATGTACTTTTTTTTTTAAATAA [XGTACX_site6048]” to “TATATATATATATGTTGTACAAAAATGTAAAATATA [XGTACX_site7761]”, the “gcPBM binding intensity (ln)” value rises from 9.35 to 9.88.

Going from “ATACATATAAATAATTGTACTATTAAAAAAGAACGT [XGTACX_site3751]” to “AGCTATAATAAATATACACACATATATAAATATGTA [CACACA_site6583]”, the “gcPBM binding intensity (ln)” value falls from 9.75 to 9.69.

Compared with ATATATATATAATAAGTGCAAAAATAATGACCTATA, “AAATATATATAAGCGTGTACACATTCTGAGTGTTGT [XGTACX_site1088]” is higher in “gcPBM binding intensity (ln)” value: 9.84 for the first, 9.97 for the second.

First: ATAATAAAAATAAAATGTACATACATAAATATATAT [XGTACX_site6228]
Second: TATCGTTTTATTCGGTTGCACCAAAAAAATAAAATA [GTGCAC_site9408]
The “gcPBM binding intensity (ln)” value of the first is higher: 9.86 for the first, 9.27 for the second.

Going from “AAAGTATAACGGATACCATTTATGTGATTATTTTGT [XGTACX_negctrl_site188]” to “AAAAAAAATTAAAATAAAATATAAATATAAAATATA [GTGCAC_negctrl_site714]”, the “gcPBM binding intensity (ln)” value falls from 9.63 to 9.57.

Going from “TATATATTTTTATGCACACACAAAGAAAATTTTCCT [CACACA_site2863]” to “TGTATGTATTTGTGTAGTACGCATAAGTAATAAAAC [XGTACX_site6704]”, the “gcPBM binding intensity (ln)” value falls from 9.94 to 9.8.

Going from “AATTTATATTAAAATTGTACATTTCTTCTATAATAC [XGTACX_site8639]” to “AAATAAAAAAAATAAAAGCAATCATAATAAAAATCT [CACACA_negctrl_site161]”, the “gcPBM binding intensity (ln)” value rises from 9.59 to 9.74.

Compared with “AATATATTTAATGAGTGTACATTATTTATTATTATT [XGTACX_site6889]”, “ATACTTTTAATATGCACATGCAAATATGAAATATCG [TGCATGCA_site603]” is lower in “gcPBM binding intensity (ln)” value: 9.75 for the first, 9.51 for the second.

Compared with “TTTGGCTAGTCAAGTTGTACAAAAAAAAAAAAAAAA [XGTACX_site8382]”, “TACCAAAAGAAACACACACACAAAATATATAAATAT [CACACA_site1869]” is higher in “gcPBM binding intensity (ln)” value: 9.27 for the first, 10.6 for the second.

Going from “TCCCATATATATATATATATATATATATATAATAAT [TGCATGCA_negctrl_site41]” to “TTATATGTATTTCTTTGTACACATTTTTATATATAT [XGTACX_site1462]”, the “gcPBM binding intensity (ln)” value rises from 9.58 to 9.88.

Compared with “TAAATTTTATAAATCTGTACATATGAGCAAGAACAT [XGTACX_site7400]”, “TATCATTTTTTTAAAACACACATAATAATATAAATA [CACACA_site2845]” is lower in “gcPBM binding intensity (ln)” value: 9.65 for the first, 9.47 for the second.

First: ATTATGCACCAACACACACACACACCCCTAAAAAAT [CACACA_site2568]
Second: CACTTCAAAAAAATATGTACACATATATATATATAT [XGTACX_site3075]
The “gcPBM binding intensity (ln)” value of the first is higher: 10.8 for the first, 9.77 for the second.

First: GGTAATAAACAATGAAGTACGTAAAGGTAAAATATT [XGTACX_site2647]
Second: TTATTAGGTATATATGCACACAATACCCAAAACAAC [CACACA_site4221]
The “gcPBM binding intensity (ln)” value of the first is higher: 10.3 for the first, 9.82 for the second.

First: TAATAATCAAACTATACACACATAAATAGATATATA [CACACA_site6220]
Second: ATTTAATTTTCATGATGTACTATAGTTTAATGCACA [XGTACX_site1624]
The “gcPBM binding intensity (ln)” value of the first is higher: 9.98 for the first, 9.74 for the second.

First: TGTAAATATAAATGTAATAAATATGTAAAAATAAAT [XGTACX_negctrl_site171]
Second: TATTTTCAAAAATATACACACACATAAATATATGTA [CACACA_site8160]
The “gcPBM binding intensity (ln)” value of the first is lower: 9.6 for the first, 10.2 for the second.

Going from “CACAGATAAATTAACACACACACACGGATATTTATA [CACACA_site7788]” to “TTCCTTCAAAATTTAAGTAATAAGATAAAAATATAA [CACACA_negctrl_site1696]”, the “gcPBM binding intensity (ln)” value falls from 10.8 to 9.26.

First: ATGTATACAAATATATGTACGTATGTTCTCTTCTTT [XGTACX_site7865]
Second: TAAAGAGTTACCATTTGTACTTACGCACACATAAAA [XGTACX_site3145]
The “gcPBM binding intensity (ln)” value of the first is lower: 9.82 for the first, 9.85 for the second.

Going from “TTTTTATGTTATCAAATAAATATAAATATAATTCAT [CACACA_negctrl_site1522]” to “TATATTTGAAATATATGTACTTATAATACAGTTTAA [XGTACX_site8039]”, the “gcPBM binding intensity (ln)” value rises from 9.32 to 9.46.

Compared with “ATATATAAATTTAATACACACCCAAAAAAAAAAAAA [CACACA_site7719]”, “GAATGAATACGTTTTACACACTTGAATATAATTTCA [CACACA_site989]” is lower in “gcPBM binding intensity (ln)” value: 9.82 for the first, 9.67 for the second.

Going from “TAAATATATAAACACACACACATTAATACAGATATT [CACACA_site5851]” to “AAAATTATAAAATGGGCACACATGAAGATTGTAGTA [CACACA_site2226]”, the “gcPBM binding intensity (ln)” value falls from 10.4 to 9.98.

First: TATTAATACAGACACACACACACACTAATTAAAATA [CACACA_site7967]
Second: ATTTACCCTTGCCATGCACACTTTTTTATAGAAAAT [CACACA_site5857]
The “gcPBM binding intensity (ln)” value of the first is higher: 10.7 for the first, 10 for the second.

Going from “AATATATAATTAATTGCACACCTTGTCACGCCAAAA [CACACA_site1174]” to “ATCTATATTTTTATAACACACAATGATGTACATTAC [CACACA_site6633]”, the “gcPBM binding intensity (ln)” value rises from 9.64 to 9.9.

Going from “TGAAAATATTTTATATGTACATATATTATCAATACA [XGTACX_site92]” to “TAGAATAATCTATAAACACACAAACCCAACAAAAGA [CACACA_site6132]”, the “gcPBM binding intensity (ln)” value rises from 9.58 to 10.6.

Compared with “TTATTTATTTTTTCATGTACTTAAATATATTAATGT [XGTACX_site5804]”, “AAATATTAAATGGAAAACAAATATATATATCTTAAT [XGTACX_negctrl_site383]” is lower in “gcPBM binding intensity (ln)” value: 9.67 for the first, 9.66 for the second.

First: ATATATTGAACCTATGCATGTAAAATATATGTAATA [TGCATGCA_site644]
Second: TGTGTGGATATATGTATGCACTACCCTTTGGGTCAT [GTGCAC_site9506]
The “gcPBM binding intensity (ln)” value of the first is higher: 9.69 for the first, 9.67 for the second.

Going from “TGTAAGTATTCTTGAGGTACACATATAAATATAGTA [XGTACX_site3207]” to “AATATTATATAATAAAGTACATATATATTCATATTT [XGTACX_site7204]”, the “gcPBM binding intensity (ln)” value rises from 9.57 to 9.64.

Going from “ATATATATATATAGGAGTACATGAAATACTTAAAAA [XGTACX_site8851]” to “AAAAAAGAAATAATCAAATAAATAAAAAAGATGAAT [XGTACX_negctrl_site607]”, the “gcPBM binding intensity (ln)” value rises from 9.76 to 9.78.

First: GTGTGAAGATATAAATGCATTTTTTTATACATTTTC [CACACA_negctrl_site117]
Second: TATAAATACATCCTATACTTCTCTTTTACAGTTTTA [CACACA_negctrl_site1283]
The “gcPBM binding intensity (ln)” value of the first is higher: 9.66 for the first, 9.62 for the second.

First: GACATTAATTATTTGACACACGACTGGGTGGTGATT [CACACA_site306]
Second: TTTTTTTTTTATACATGTACTTAAAAGTAGCACCTT [XGTACX_site1855]
The “gcPBM binding intensity (ln)” value of the first is higher: 9.7 for the first, 9.54 for the second.

Going from “TGATTCAATTTATGCACACTAAAAATTAATTATATT [CACACA_site271]” to “ATTATATATACAACAAGTACAAAAGAAAAATATTAT [XGTACX_site2914]”, the “gcPBM binding intensity (ln)” value rises from 9.65 to 9.66.

Compared with “TTTGTAAAAGGTCATACACACATATTCAAAAGAAGT [CACACA_site2947]”, “AAAAAAAAAAAATACACACACACATATAAATATGTA [CACACA_site6900]” is higher in “gcPBM binding intensity (ln)” value: 10 for the first, 10.3 for the second.

Compared with “GTTTATATATGCTTATAATTTTCAATTGTTTTACAA [TGCATGCA_negctrl_site384]”, “ATATATATATATAATTGTACATTTTTAACCTTAACA [XGTACX_site7910]” is lower in “gcPBM binding intensity (ln)” value: 9.6 for the first, 9.54 for the second.
